The record followed here is US20160122768A1 (LA JOLLA INSTITUTE FOR ALLERGY AND IMMUNOLOGY, published 2016).

The target in the assay is T1, C-terminally HA-tagged wild type (WT) RPTPκ (NM 008983.2), full-length, immunoprecipitated from COS-1 cells (UniProt P35822 26-1457).
T1 construct: It was held on anti-HA immunoprecipitate beads in the assay; also called HA-tagged WT RPTPκ; full-length RPTPk; not shown: C-terminal HA tag
T1 sequence (looked up): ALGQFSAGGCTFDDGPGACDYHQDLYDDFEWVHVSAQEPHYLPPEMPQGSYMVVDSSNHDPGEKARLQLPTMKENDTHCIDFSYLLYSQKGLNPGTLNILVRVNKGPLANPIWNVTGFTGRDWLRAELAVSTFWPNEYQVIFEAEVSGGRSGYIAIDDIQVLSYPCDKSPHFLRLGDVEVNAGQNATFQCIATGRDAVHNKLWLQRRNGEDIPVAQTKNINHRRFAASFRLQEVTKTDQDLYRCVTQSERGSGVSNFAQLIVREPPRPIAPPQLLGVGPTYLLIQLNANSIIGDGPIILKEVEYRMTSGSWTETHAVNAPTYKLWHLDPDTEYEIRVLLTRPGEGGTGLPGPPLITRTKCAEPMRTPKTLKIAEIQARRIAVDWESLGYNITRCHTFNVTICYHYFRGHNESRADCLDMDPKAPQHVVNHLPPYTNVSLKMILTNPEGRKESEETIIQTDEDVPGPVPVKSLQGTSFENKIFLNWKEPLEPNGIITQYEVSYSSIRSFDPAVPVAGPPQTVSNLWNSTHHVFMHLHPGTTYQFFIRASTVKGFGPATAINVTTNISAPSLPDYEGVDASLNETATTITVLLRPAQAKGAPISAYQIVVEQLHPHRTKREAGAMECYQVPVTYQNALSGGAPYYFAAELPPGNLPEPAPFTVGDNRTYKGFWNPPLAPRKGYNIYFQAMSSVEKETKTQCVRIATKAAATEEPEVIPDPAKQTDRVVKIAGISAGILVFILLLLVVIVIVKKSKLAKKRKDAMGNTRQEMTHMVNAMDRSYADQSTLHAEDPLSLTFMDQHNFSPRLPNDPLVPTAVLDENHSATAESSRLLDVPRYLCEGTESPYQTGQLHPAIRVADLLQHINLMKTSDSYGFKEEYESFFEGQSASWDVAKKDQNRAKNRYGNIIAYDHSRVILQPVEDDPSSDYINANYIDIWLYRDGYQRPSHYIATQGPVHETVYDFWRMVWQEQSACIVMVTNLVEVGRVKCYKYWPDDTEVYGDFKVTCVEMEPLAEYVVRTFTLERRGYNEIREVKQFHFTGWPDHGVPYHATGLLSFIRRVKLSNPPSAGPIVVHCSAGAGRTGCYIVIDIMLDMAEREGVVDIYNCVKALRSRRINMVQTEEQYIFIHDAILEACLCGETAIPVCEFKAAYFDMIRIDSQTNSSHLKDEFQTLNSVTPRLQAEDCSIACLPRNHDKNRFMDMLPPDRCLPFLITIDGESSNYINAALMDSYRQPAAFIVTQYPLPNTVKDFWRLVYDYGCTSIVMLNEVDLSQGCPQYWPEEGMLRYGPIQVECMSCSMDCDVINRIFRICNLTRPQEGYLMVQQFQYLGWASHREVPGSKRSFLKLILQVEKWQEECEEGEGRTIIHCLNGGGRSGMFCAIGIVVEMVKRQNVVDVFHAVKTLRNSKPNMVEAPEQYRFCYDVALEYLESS
Put plainly: pull-down of RA FLS lysates with immunoprecipitated HA-tagged RPTPκ, Western blotting. As for the experimental part: In vitro Pull-Down Assay. HA-tagged WT RPTPκ was overexpressed in COS-1 cells. Cells were lysed in THE buffer (20 mM Tris-HCl pH 7.5, 150 mM NaCl, 5 mM EDTA pH 8.0 and 1% NP-40) containing 10 μg/mL aprotinin, 10 μg/mL leupeptin, 10 μg/mL soybean trypsin inhibitor, and 1 mM phenylmethylsulfonyl fluoride. RPTPκ was immunoprecipitated using anti-HA antibody (Covance, Princeton, N.J.). RA FLS were lysed in RIPA buffer containing 10 μg/mL aprotinin, 10 μg/mL leupeptin, 10 μg/mL soybean trypsin inhibitor, 1 mM phenylmethylsulfonyl fluoride and 5 mM iodoacetamide. Lysates were treated with 10 mM dithiothreitol for 10 min, and then diluted 10-fold in buffer containing 25 mM Tris-HCl pH 7.6, 150 mM NaCl and 1 mM ethylenediaminetetraacetic acid. Immunoprecipitates were incubated with RA FLS lysates for 3 hr at 4° C., washed in the dilution buffer, and subjected to Western blotting.
We next investigated if RPTPk directly interacts with and/or dephosphorylates SFKs. HA-tagged RPTPκ was immunoprecipitated from COS-1 cells and incubated in vitro with RA FLS lysates, and pull-down was subjected to Western blotting. Both full-length RPTPk immunoprecipitated from COS-1 cells and a recombinant substrate-trapping mutant of the RPTPk catalytic domain (iPTPk-D1051A) precipitated SRC from RA FLS lysates in pull-down assays, but not YES or FYN (SFKs also expressed in FLS).

B1: FYN (endogenous, from RA FLS lysates) (enzyme)
chain: not shown
Consider B1, for which the binding result is reported as “no binding”.
